We go through twelve proteins from the supplement of paper PMC11876631.

First the molecules themselves.
B1: plsC F104A (protein)
chain: MLYIFRLIITVIYSILVCVFGSIYCLFSPRNPKHVATFGHMFGRLAPLFGLKVECRKPTDAESYGNAIYIANHQNNYDMVTASNIVQPPTVTVGKKSLLWIPFAGQLYWLTGNLLIDRNNRTKAHGTIAEVVNHFKKRRISIWMFPEGTRSRGRGLLPFKTGAFHAAIAAGVPIIPVCVSTTSNKINLNRLHNGLVIVEMLPPIDVSQYGKDQVRELAAHCRSIMEQKIAELDKEVAEREAAGKV
B2: plsC F104Q (protein)
chain: MLYIFRLIITVIYSILVCVFGSIYCLFSPRNPKHVATFGHMFGRLAPLFGLKVECRKPTDAESYGNAIYIANHQNNYDMVTASNIVQPPTVTVGKKSLLWIPFQGQLYWLTGNLLIDRNNRTKAHGTIAEVVNHFKKRRISIWMFPEGTRSRGRGLLPFKTGAFHAAIAAGVPIIPVCVSTTSNKINLNRLHNGLVIVEMLPPIDVSQYGKDQVRELAAHCRSIMEQKIAELDKEVAEREAAGKV
B3: plsC I142A (protein)
chain: MLYIFRLIITVIYSILVCVFGSIYCLFSPRNPKHVATFGHMFGRLAPLFGLKVECRKPTDAESYGNAIYIANHQNNYDMVTASNIVQPPTVTVGKKSLLWIPFFGQLYWLTGNLLIDRNNRTKAHGTIAEVVNHFKKRRISAWMFPEGTRSRGRGLLPFKTGAFHAAIAAGVPIIPVCVSTTSNKINLNRLHNGLVIVEMLPPIDVSQYGKDQVRELAAHCRSIMEQKIAELDKEVAEREAAGKV
B4: plsC F145Q (protein)
chain: MLYIFRLIITVIYSILVCVFGSIYCLFSPRNPKHVATFGHMFGRLAPLFGLKVECRKPTDAESYGNAIYIANHQNNYDMVTASNIVQPPTVTVGKKSLLWIPFFGQLYWLTGNLLIDRNNRTKAHGTIAEVVNHFKKRRISIWMQPEGTRSRGRGLLPFKTGAFHAAIAAGVPIIPVCVSTTSNKINLNRLHNGLVIVEMLPPIDVSQYGKDQVRELAAHCRSIMEQKIAELDKEVAEREAAGKV
B5: plsC F104W (protein)
chain: MLYIFRLIITVIYSILVCVFGSIYCLFSPRNPKHVATFGHMFGRLAPLFGLKVECRKPTDAESYGNAIYIANHQNNYDMVTASNIVQPPTVTVGKKSLLWIPFWGQLYWLTGNLLIDRNNRTKAHGTIAEVVNHFKKRRISIWMFPEGTRSRGRGLLPFKTGAFHAAIAAGVPIIPVCVSTTSNKINLNRLHNGLVIVEMLPPIDVSQYGKDQVRELAAHCRSIMEQKIAELDKEVAEREAAGKV
B6: plsC I142Q (protein)
chain: MLYIFRLIITVIYSILVCVFGSIYCLFSPRNPKHVATFGHMFGRLAPLFGLKVECRKPTDAESYGNAIYIANHQNNYDMVTASNIVQPPTVTVGKKSLLWIPFFGQLYWLTGNLLIDRNNRTKAHGTIAEVVNHFKKRRISQWMFPEGTRSRGRGLLPFKTGAFHAAIAAGVPIIPVCVSTTSNKINLNRLHNGLVIVEMLPPIDVSQYGKDQVRELAAHCRSIMEQKIAELDKEVAEREAAGKV
B7: plsC F145A (protein)
chain: MLYIFRLIITVIYSILVCVFGSIYCLFSPRNPKHVATFGHMFGRLAPLFGLKVECRKPTDAESYGNAIYIANHQNNYDMVTASNIVQPPTVTVGKKSLLWIPFFGQLYWLTGNLLIDRNNRTKAHGTIAEVVNHFKKRRISIWMAPEGTRSRGRGLLPFKTGAFHAAIAAGVPIIPVCVSTTSNKINLNRLHNGLVIVEMLPPIDVSQYGKDQVRELAAHCRSIMEQKIAELDKEVAEREAAGKV
B8: plsC F145D (protein)
chain: MLYIFRLIITVIYSILVCVFGSIYCLFSPRNPKHVATFGHMFGRLAPLFGLKVECRKPTDAESYGNAIYIANHQNNYDMVTASNIVQPPTVTVGKKSLLWIPFFGQLYWLTGNLLIDRNNRTKAHGTIAEVVNHFKKRRISIWMDPEGTRSRGRGLLPFKTGAFHAAIAAGVPIIPVCVSTTSNKINLNRLHNGLVIVEMLPPIDVSQYGKDQVRELAAHCRSIMEQKIAELDKEVAEREAAGKV
B9: plsC I142W (protein)
chain: MLYIFRLIITVIYSILVCVFGSIYCLFSPRNPKHVATFGHMFGRLAPLFGLKVECRKPTDAESYGNAIYIANHQNNYDMVTASNIVQPPTVTVGKKSLLWIPFFGQLYWLTGNLLIDRNNRTKAHGTIAEVVNHFKKRRISWWMFPEGTRSRGRGLLPFKTGAFHAAIAAGVPIIPVCVSTTSNKINLNRLHNGLVIVEMLPPIDVSQYGKDQVRELAAHCRSIMEQKIAELDKEVAEREAAGKV
B10: ppc V134A (protein)
chain: MNEQYSALRSNVSMLGKVLGETIKDALGEHILERVETIRKLSKSSRAGNDANRQELLTTLQNLSNDELLPVARAFSQFLNLANTAEQYHSISPKGEAASNPEVIARTLRKLKNQPELSEDTIKKAVESLSLELALTAHPTEITRRTLIHKMVEVNACLKQLDNKDIADYEHNQLMRRLRQLIAQSWHTDEIRKLRPSPVDEAKWGFAVVENSLWQGVPNYLRELNEQLEENLGYKLPVEFVPVRFTSWMGGDRDGNPNVTADITRHVLLLSRWKATDLFLKDIQVLVSELSMVEATPELLALVGEEGAAEPYRYLMKNLRSRLMATQAWLEARLKGEELPKPEGLLTQNEELWEPLYACYQSLQACGMGIIANGDLLDTLRRVKCFGVPLVRIDIRQESTRHTEALGELTRYLGIGDYESWSEADKQAFLIRELNSKRPLLPRNWQPSAETREVLDTCQVIAEAPQGSIAAYVISMAKTPSDVLAVHLLLKEAGIGFAMPVAPLFETLDDLNNANDVMTQLLNIDWYRGLIQGKQMVMIGYSDSAKDAGVMAASWAQYQAQDALIKTCEKAGIELTLFHGRGGSIGRGGAPAHAALLSQPPGSLKGGLRVTEQGEMIRFKYGLPEITVSSLSLYTGAILEANLLPPPEPKESWRRIMDELSVISCDVYRGYVRENKDFVPYFRSATPEQELGKLPLGSRPAKRRPTGGVESLRAIPWIFAWTQNRLMLPAWLGAGTALQKVVEDGKQSELEAMCRDWPFFSTRLGMLEMVFAKADLWLAEYYDQRLVDKALWPLGKELRNLQEEDIKVVLAIANDSHLMADLPWIAESIQLRNIYTDPLNVLQAELLHRSRQAEKEGQEPDPRVEQALMVTIAGIAAGMRNTG
B11: ppc V134Q (protein)
chain: MNEQYSALRSNVSMLGKVLGETIKDALGEHILERVETIRKLSKSSRAGNDANRQELLTTLQNLSNDELLPVARAFSQFLNLANTAEQYHSISPKGEAASNPEVIARTLRKLKNQPELSEDTIKKAVESLSLELQLTAHPTEITRRTLIHKMVEVNACLKQLDNKDIADYEHNQLMRRLRQLIAQSWHTDEIRKLRPSPVDEAKWGFAVVENSLWQGVPNYLRELNEQLEENLGYKLPVEFVPVRFTSWMGGDRDGNPNVTADITRHVLLLSRWKATDLFLKDIQVLVSELSMVEATPELLALVGEEGAAEPYRYLMKNLRSRLMATQAWLEARLKGEELPKPEGLLTQNEELWEPLYACYQSLQACGMGIIANGDLLDTLRRVKCFGVPLVRIDIRQESTRHTEALGELTRYLGIGDYESWSEADKQAFLIRELNSKRPLLPRNWQPSAETREVLDTCQVIAEAPQGSIAAYVISMAKTPSDVLAVHLLLKEAGIGFAMPVAPLFETLDDLNNANDVMTQLLNIDWYRGLIQGKQMVMIGYSDSAKDAGVMAASWAQYQAQDALIKTCEKAGIELTLFHGRGGSIGRGGAPAHAALLSQPPGSLKGGLRVTEQGEMIRFKYGLPEITVSSLSLYTGAILEANLLPPPEPKESWRRIMDELSVISCDVYRGYVRENKDFVPYFRSATPEQELGKLPLGSRPAKRRPTGGVESLRAIPWIFAWTQNRLMLPAWLGAGTALQKVVEDGKQSELEAMCRDWPFFSTRLGMLEMVFAKADLWLAEYYDQRLVDKALWPLGKELRNLQEEDIKVVLAIANDSHLMADLPWIAESIQLRNIYTDPLNVLQAELLHRSRQAEKEGQEPDPRVEQALMVTIAGIAAGMRNTG
B12: ppc L178A (protein)
chain: MNEQYSALRSNVSMLGKVLGETIKDALGEHILERVETIRKLSKSSRAGNDANRQELLTTLQNLSNDELLPVARAFSQFLNLANTAEQYHSISPKGEAASNPEVIARTLRKLKNQPELSEDTIKKAVESLSLELVLTAHPTEITRRTLIHKMVEVNACLKQLDNKDIADYEHNQLMRRARQLIAQSWHTDEIRKLRPSPVDEAKWGFAVVENSLWQGVPNYLRELNEQLEENLGYKLPVEFVPVRFTSWMGGDRDGNPNVTADITRHVLLLSRWKATDLFLKDIQVLVSELSMVEATPELLALVGEEGAAEPYRYLMKNLRSRLMATQAWLEARLKGEELPKPEGLLTQNEELWEPLYACYQSLQACGMGIIANGDLLDTLRRVKCFGVPLVRIDIRQESTRHTEALGELTRYLGIGDYESWSEADKQAFLIRELNSKRPLLPRNWQPSAETREVLDTCQVIAEAPQGSIAAYVISMAKTPSDVLAVHLLLKEAGIGFAMPVAPLFETLDDLNNANDVMTQLLNIDWYRGLIQGKQMVMIGYSDSAKDAGVMAASWAQYQAQDALIKTCEKAGIELTLFHGRGGSIGRGGAPAHAALLSQPPGSLKGGLRVTEQGEMIRFKYGLPEITVSSLSLYTGAILEANLLPPPEPKESWRRIMDELSVISCDVYRGYVRENKDFVPYFRSATPEQELGKLPLGSRPAKRRPTGGVESLRAIPWIFAWTQNRLMLPAWLGAGTALQKVVEDGKQSELEAMCRDWPFFSTRLGMLEMVFAKADLWLAEYYDQRLVDKALWPLGKELRNLQEEDIKVVLAIANDSHLMADLPWIAESIQLRNIYTDPLNVLQAELLHRSRQAEKEGQEPDPRVEQALMVTIAGIAAGMRNTG

± gives the standard deviation of the averaged measurements. Laboratory Escherichia coli strains with one amino-acid change in an essential protein, pooled on minimal glucose agar with carbenicillin or gentamicin at twice the control MIC (plus kanamycin and chloramphenicol for the plasmids), 48 h. Fold change of barcode share against drug-free plates; higher = less susceptible. Active = above 20 in both replicates (the paper's putatively resistant). '<' = one read or none on drug, '>' = one read or none on a drug-free plate. Shares are relative, so most strains fall below 1 when a few take over. Listed are strains with at least 15 reads on both drug-free plates, and hits; most hits rest on fewer reference reads. Replicate rank correlation about 0.5. Edits are read from barcodes.

One series has as its target Escherichia coli (laboratory strain). Nature of the series: barcode share on antibiotic plates over drug-free plates; higher = less susceptible. The conditions noted are these: antibiotic: carbenicillin; 2× MIC (3.1 µg/mL). The method, then: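 A pool of E. coli strains, each edited to carry one amino-acid change in an essential protein, was grown for 48 h on minimal glucose agar with or without antibiotic; strain barcodes were sequenced; mean of two replicates.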
As for B1, the “fold change of barcode share” value came out at 0.309 ± 0.11.

As to B2, the “fold change of barcode share” value was 140 [active].

With B3, the “fold change of barcode share” value came to 0.377 ± 0.086.

For B4, the “fold change of barcode share” value amounted to 3.22 ± 2.5.

Regarding B5, the “fold change of barcode share” value was determined as 0.306 ± 0.042.

With B6, the “fold change of barcode share” value was 194 [active].

Regarding B7, the “fold change of barcode share” value was 0.314 ± 0.0051.

Regarding B8, the “fold change of barcode share” value is 196 [active].

With B9, the “fold change of barcode share” value worked out at 0.289 ± 0.12.

Turning to B10, the “fold change of barcode share” value came out at 0.548 ± 0.17.

As for B11, the “fold change of barcode share” value is > 28.5 [active].

With B12, the “fold change of barcode share” value is 1.24 ± 1.1.

Staying with this series, now noted: antibiotic: gentamicin; 2× MIC (MIC 0.45 µg/mL).
For B1, the “fold change of barcode share” value amounted to 0.00743 ± 0.0023.

Regarding B3, the “fold change of barcode share” value was below 0.00867.

For B4, the “fold change of barcode share” value turned out to be 0.0121 ± 0.011.

Take B5: the “fold change of barcode share” value amounted to 0.00602 ± 0.0037.

Take B7: the “fold change of barcode share” value amounted to 0.00516 ± 0.0041.

Consider B9, for which the “fold change of barcode share” value was below 0.0101.

For B10, the “fold change of barcode share” value was below 0.00487.

Turning to B12, the “fold change of barcode share” value was below 0.00801.
